The source of these data is PMC10726135.

This is one part of the list. At the low end of the ranking the order means little. Measured with an extract: partners may take part in the binding.

The target in this assay is T1, HNF4alpha2 (COS-7 nuclear extract) (UniProt P41235).
T1 sequence: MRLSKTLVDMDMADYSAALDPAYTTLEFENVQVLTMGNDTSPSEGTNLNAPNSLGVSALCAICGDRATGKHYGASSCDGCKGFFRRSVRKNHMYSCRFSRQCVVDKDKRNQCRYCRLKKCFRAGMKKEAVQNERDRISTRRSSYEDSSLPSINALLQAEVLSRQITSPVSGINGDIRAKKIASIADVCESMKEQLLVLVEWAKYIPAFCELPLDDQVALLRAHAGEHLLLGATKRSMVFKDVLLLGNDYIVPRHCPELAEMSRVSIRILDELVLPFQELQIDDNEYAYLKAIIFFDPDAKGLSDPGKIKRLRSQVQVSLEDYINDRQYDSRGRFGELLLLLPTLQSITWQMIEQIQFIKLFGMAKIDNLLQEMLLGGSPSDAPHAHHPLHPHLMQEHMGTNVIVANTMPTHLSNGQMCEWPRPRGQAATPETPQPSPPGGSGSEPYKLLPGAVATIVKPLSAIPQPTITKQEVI
Nature of the assay: protein-binding microarray. The following applies: COS-7 nuclear extract on double-stranded Agilent 4x180k PBM; binding buffer, salt, pH and temperature not given; high values mean tight binding; double strand, one strand shown; sequences stand for … in …GCCTAGGGAGATTAGAGTATCGGTCGA
Consider ATCACGGACTATCCCCGTCCGCGGAAGCAC, for which the binding signal (log2 normalized intensity) is 0.338. Under TTTCTGAAGACCTTCAACTGATTAGATAAG stands -0.765. Under AAGTTCAAGTAGATAAAATCAAACAGATGT stands 1.02. For AAAAGTATGTCATAATGTACTCCACTGTGC the value was 1.63. As for GGGCCCTGACCTCAAGTGACCTTTGACCTC, the binding signal (log2 normalized intensity) was 12.1. For GAACAAAGGTTGGTGTGAACCAGGGTTAAG the value was 0.583; for GATACAGTTATGAAAAGAAACAGCCAAAAG, -1.13; for TGAACTATTGAACCACCAGATAGAGCTTTT, 0.21.

Regarding GCATTAGTTATATCTTACCTCCTTCTCCCC, the binding signal (log2 normalized intensity) turned out to be 3.05. For TTGAGAGAGATTAAAGGTCAAGCCCAACCA the value was 3.71; for TGTCTCACCTCGCTATCACCCCGATAAGGA, 2.94; for GGGCTCAAACAATCCTCCCACCTCAGCATC, 0.826.

For the sequence TCCCCACCTTCCATTACCACATTCTCACCA, the binding signal (log2 normalized intensity) was found to be 1.8. Under CTTTGATAGCCAAGCCAACCAGGAGAATTT stands 2.12; under CTTTAACGACCTTTGGACTTGAATTATCCT, 7.84.

For CTAACCTTGAGGAGCCCTATCCGCAGCTGC, the binding signal (log2 normalized intensity) is -1.16.

On to TTACACTGGCTGCCCTGGGGATCAAAGCGT, for which the binding signal (log2 normalized intensity) was -0.591. For TAAAGTATGTGGTGGGTGTGGTGATGGCAG, the binding signal (log2 normalized intensity) came to 1.76.

As for CCAGTTGGTGGGTCAAGGTGCAAAGAGATG, the binding signal (log2 normalized intensity) was 2.09. Under TTGACTCTTCCCATCTAACTGCCCCTGATA stands 3.78; under GAACATCTGATTTCCCCGTCCCAAGCTGAG, 3.3.

Take GTCAACAGCCAGCCTCAAAGATCAAAGGTA: the binding signal (log2 normalized intensity) came to 2.18. Under CAAAGGGCTTATTTTAGGAGCCTCCAATCA stands -1.2; under TATCCAGTCAATCCCGTGGACTTTGCCTGC, 6.35; under AATCTGCAGCCGCCGGAGAATTAAACTGCC, -1.15. Regarding AGGATGAGAATCCACCTGCCTGCTTGGCCT, the binding signal (log2 normalized intensity) was -1.17. Under GGAATGCTATTTGCATTGACACAACCCAAC stands -1.12; under GCAGTGATCAGTGTTGAGAATCCCTCCCCT, 3.59. Take TGGCATTCTTGAGCTACCGCCTGAACCTTG: the binding signal (log2 normalized intensity) worked out at 2.27. With AACCCTGGCCACTCCCTGATAGAGAACAAG, the binding signal (log2 normalized intensity) was -1.23.

For the sequence AGAGAAACAAATCTGCTTTCTACCCTGAGG, the binding signal (log2 normalized intensity) was -0.952.

As for CTGCTAACAGATAAAGGGTGGTAAAGATGT, the binding signal (log2 normalized intensity) was determined as 0.867.

Regarding CACAGAGCAAAGGTCATGCATAGAAGTATG, the binding signal (log2 normalized intensity) amounted to 4.18.

As to AGGCTGAAGGGAAGCTCTGGGAGTGCCCTT, the binding signal (log2 normalized intensity) is 1.93. With TTTGCAACCTTTGATAACCTACAACCTTCT, the binding signal (log2 normalized intensity) amounted to 0.304. As to ACAAAGTCTATGCTAAGATGGTCTCAGGTG, the binding signal (log2 normalized intensity) was found to be 1.45. For TCAGCAGAAGGCCCCAGGTGAACCAGGGTG the value was -1.01.

Regarding TTTTCCTCGGGTGTCTCCGAGATAAGGCGT, the binding signal (log2 normalized intensity) amounted to 0.759. Under GTGACCTTAGACCCCTGAATAGGTCTTGGA stands 3.12. For ATATTATCATTGCCTCTGGTATGCAGAAAA the value was 1.47; for CTGGCAAAGCCATGAAGCAATTCTGAGCCC, -0.972. Regarding GTCTGTGTTCACATAGGGGCCTTTAGCACC, the binding signal (log2 normalized intensity) came out at 1.27. Under CACAAGGAATGCCCTTATCTCCCAGCCACC stands 1.75; under AGTTGGTATTTAGTAAATATTAGGCAAGCT, -1.14. Under CCACAGCAGAAGGCAACAGCTCTGGAGGAT stands -1.28; under GGCATAGTTGCATATCTGGAATTTCAAAGG, 1.52. For CATAACTCAGCGGGAGGCAAGATAAGGGTA the value was -1.17; for GCTCAAGCCTGTTCCGACCTTAGTACTCTG, 4.08. Consider CTCATTCTGATATGCACTGTCAGTTTTTCC, for which the binding signal (log2 normalized intensity) came out at 1.13. For TTGTACATGGGAATAGACATTCCAGAAATA the value was -0.165; for CCTCTGTAGGGCAGCAGCCGGCCTCTTAAC, -1.13; for ATGCTTCAGTGAGCCTTGACCTTCATGCTA, 2.25. For GCTTCAGGAGTCCACTGTGTTCTTGTTTGC the value was 1.64; for TGGGACTTAATCCTTGTCTGTTTGGCCTTA, 2.11; for ACACAAAGACATTGCCTGGCATTATCAGTG, -1.05. As to AGAGGGGGTTTGTTTTTTGCCCTTTGTACC, the binding signal (log2 normalized intensity) amounted to 8.01. For GATTGGACTCTGCACTCCAGCCTGGGTGAC the value was 3.07; for ATGTTGACCCGAGTGCCCTTTGGCAAACAG, 2.81. For GATCTCCGTGTTTGGAATTGTGTCACTCCC the value was 1.97; for TGTGTTGGCAAGAGATCTGCAGGGTTAAAT, 1.33. Under GTGACCAAGAATGTCTAACCTCCTGGGAAT stands -1.09; under GACAGGGTAATTTACAGAACTCTTCGAAGA, -0.991. As for ACCTTTGACCCTTCTCTGGGAGAAAGGGAG, the binding signal (log2 normalized intensity) turned out to be 2.99. Under ACATTCTTTAGCATATTACACCTGTAGCTT stands -0.577; under GCAAGGGCCCCCACTAGAGAGACCGTCCCT, 2.39. Turning to ATCACTCAAGAAATGGCAGTTTTAAGAGCT, the binding signal (log2 normalized intensity) was -1.1. For AGTTTGAACTTTGACTTATTTAGTAGTGGC, the binding signal (log2 normalized intensity) was 3.74. Under CTTGGATCCTCAGGGTTCATAGATGATAGT stands 1.33.

Take TGAAAGCTGCTTCCCAGTTGCTCTGGAGTG: the binding signal (log2 normalized intensity) was -1.11.

Turning to AACAACCCATCCTTGACACATCTGATTAGA, the binding signal (log2 normalized intensity) was -0.719. As for TTATTGATAACCCTATAAGGTAGAATCTAT, the binding signal (log2 normalized intensity) was -1.06. For GACCTGTATCTTGTGGTGACCTCTTATCTC, the binding signal (log2 normalized intensity) worked out at 3.39. Under CTGCAGAGAACAGCAGCTATCAGTGGTCCG stands 1.03.
